The list shows a part of the results.
Key:
Test in all cases: glycan array binding signal (z-score within array); higher = stronger binding
Details in all cases: glycan notation: IUPAC condensed, linker removed
Gal(a1-3)Gal(b1-3)GlcNAc = target: Gal(a1-3)Gal(b1-3)GlcNAc
Summary of the method: (§1)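 The Consortium for Functional Glycomics database supplied 3228 glycan arrays, of which those lacking an available protein sequence were dropped. The binding signal, a within-array Z-score, was averaged across arrays of the same protein sequence and across linkers. Negative scores can be read as non-binding.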

[1] = target: Gal(a1-3)Gal(b1-3)GlcNAc(b1-2)Man
Summary of the method: as §1

[2] = target: Gal(a1-3)Gal(b1-3)GlcNAc(b1-2)Man(a1-3)[Gal(a1-3)Gal(b1-3)GlcNAc(b1-2)Man(a1-6)]Man(b1-4)GlcNAc(b1-4)GlcNAc
Summary of the method: as §1

[3] = target: Gal(a1-3)Gal(b1-3)GlcNAc(b1-3)GalNAc
Summary of the method: as §1

[4] = target: Gal(a1-3)Gal(b1-3)GlcNAc(b1-6)GalNAc
Summary of the method: as §1

[5] = target: Gal(a1-3)Gal(b1-3)[Fuc(a1-4)]GlcNAc(b1-2)Man(a1-3)[Gal(a1-3)Gal(b1-3)[Fuc(a1-4)]GlcNAc(b1-2)Man(a1-6)]Man(b1-4)GlcNAc(b1-4)GlcNAc
Summary of the method: as §1

Gal(a1-3)Gal(b1-4)Glc = target: Gal(a1-3)Gal(b1-4)Glc
Summary of the method: as §1

Gal(a1-3)Gal(b1-4)GlcNAc = target: Gal(a1-3)Gal(b1-4)GlcNAc
Summary of the method: as §1

[6] = target: Gal(a1-3)Gal(b1-4)GlcNAc(b1-2)Man
Summary of the method: as §1

[7] = target: Gal(a1-3)Gal(b1-4)GlcNAc(b1-2)Man(a1-3)[Gal(a1-3)Gal(b1-4)GlcNAc(b1-2)Man(a1-6)]Man(b1-4)GlcNAc(b1-4)GlcNAc
Summary of the method: as §1

[8] = target: Gal(a1-3)Gal(b1-4)GlcNAc(b1-3)GalNAc
Summary of the method: as §1

[9] = target: Gal(a1-3)Gal(b1-4)GlcNAc(b1-6)GalNAc
Summary of the method: as §1

[10] = target: Gal(a1-3)Gal(b1-4)[Fuc(a1-3)]GlcNAc
Summary of the method: as §1

[11] = target: Gal(a1-3)Gal(b1-4)[Fuc(a1-3)]GlcNAc(b1-2)Man(a1-3)[Gal(a1-3)Gal(b1-4)[Fuc(a1-3)]GlcNAc(b1-2)Man(a1-6)]Man(b1-4)GlcNAc(b1-4)GlcNAc
Summary of the method: as §1

Gal(a1-3)GalNAc = target: Gal(a1-3)GalNAc
Summary of the method: as §1

[12] = target: Gal(a1-3)[Gal(a1-4)]Gal(b1-4)GlcNAc
Summary of the method: as §1

[13] = target: Gal(a1-4)Gal(b1-3)GlcNAc(b1-2)Man(a1-3)[Gal(a1-4)Gal(b1-3)GlcNAc(b1-2)Man(a1-6)]Man(b1-4)GlcNAc(b1-4)GlcNAc
Summary of the method: as §1

Gal(a1-4)Gal(b1-4)Glc = target: Gal(a1-4)Gal(b1-4)Glc
Summary of the method: as §1

Gal(a1-4)Gal(b1-4)GlcNAc = target: Gal(a1-4)Gal(b1-4)GlcNAc
Summary of the method: as §1

[14] = target: Gal(a1-4)Gal(b1-4)GlcNAc(b1-2)Man(a1-3)[Gal(a1-4)Gal(b1-4)GlcNAc(b1-2)Man(a1-6)]Man(b1-4)GlcNAc(b1-4)GlcNAc
Summary of the method: as §1

[15] = target: Gal(a1-4)Gal(b1-4)GlcNAc(b1-3)Gal(b1-4)Glc
Summary of the method: as §1

Gal(a1-4)GlcNAc = target: Gal(a1-4)GlcNAc
Summary of the method: as §1

Gal(a1-6)Glc = target: Gal(a1-6)Glc
Summary of the method: as §1

Gal(b1-2)Gal = target: Gal(b1-2)Gal
Summary of the method: as §1

Gal(b1-3)Gal = target: Gal(b1-3)Gal
Summary of the method: as §1

Gal(b1-3)Gal(b1-4)GlcNAc = target: Gal(b1-3)Gal(b1-4)GlcNAc
Summary of the method: as §1

Gal(b1-3)GalNAc = target: Gal(b1-3)GalNAc
Summary of the method: as §1

[16] = target: Gal(b1-3)GalNAc(a1-3)[Fuc(a1-2)]Gal(b1-4)Glc
Summary of the method: as §1

[17] = target: Gal(b1-3)GalNAc(a1-3)[Fuc(a1-2)]Gal(b1-4)GlcNAc
Summary of the method: as §1

Gal(b1-3)GalNAc(b1-3)Gal = target: Gal(b1-3)GalNAc(b1-3)Gal
Summary of the method: as §1

[18] = target: Gal(b1-3)GalNAc(b1-3)Gal(a1-4)Gal(b1-4)Glc
Summary of the method: as §1

[19] = target: Gal(b1-3)GalNAc(b1-4)Gal(b1-4)Glc
Summary of the method: as §1

[20] = target: Gal(b1-3)GalNAc(b1-4)[Neu5Ac(a2-3)]Gal(b1-4)Glc
Summary of the method: as §1

Gal(b1-3)GlcNAc = target: Gal(b1-3)GlcNAc
Summary of the method: as §1

[21] = target: Gal(b1-3)GlcNAc(a1-3)Gal(b1-4)GlcNAc
Summary of the method: as §1

[22] = target: Gal(b1-3)GlcNAc(a1-6)Gal(b1-4)GlcNAc
Summary of the method: as §1

Gal(b1-3)GlcNAc(b1-2)Man = target: Gal(b1-3)GlcNAc(b1-2)Man
Summary of the method: as §1

[23] = target: Gal(b1-3)GlcNAc(b1-2)Man(a1-3)[Gal(b1-3)GlcNAc(b1-2)Man(a1-6)]Man(b1-4)GlcNAc(b1-4)GlcNAc
Summary of the method: as §1

B1: Microvirin-2 (Microcystis aeruginosa) (protein)
chain: MPNFSHTCSSINYDPDSTILSAECQARDGEWLPTELRLSDHIGNIDGELQFGDQNFQETCQDCHLEFGDGEQSVWLVCTCQTMDGEWKSTQILLDSQIDNNDSQLEIGGSMPNFSHTCSSINYDPDSTILSAECQARDGEWLPTELRLSDHIGNIDGELQFGDQNFQETCQDCHLEFGDGEQSVWLVCTCQTMDGEWKSTQILLDSQIDNNDSQLEIG
Which results are given for B1?
glycan array binding signal (z-score) (Gal(a1-3)Gal(b1-3)GlcNAc): -0.14; glycan array binding signal (z-score) [1]: -0.139; glycan array binding signal (z-score) [2]: -0.117; glycan array binding signal (z-score) [3]: -0.132; glycan array binding signal (z-score) [4]: -0.133; glycan array binding signal (z-score) [5]: 0.095; glycan array binding signal (z-score) (Gal(a1-3)Gal(b1-4)Glc): -0.142; glycan array binding signal (z-score) (Gal(a1-3)Gal(b1-4)GlcNAc): -0.133; glycan array binding signal (z-score) [6]: -0.124; glycan array binding signal (z-score) [7]: -0.072; glycan array binding signal (z-score) [8]: -0.139; glycan array binding signal (z-score) [9]: -0.134; glycan array binding signal (z-score) [10]: -0.137; glycan array binding signal (z-score) [11]: -0.112; glycan array binding signal (z-score) (Gal(a1-3)GalNAc): -0.125; glycan array binding signal (z-score) [12]: -0.137; glycan array binding signal (z-score) [13]: -0.087; glycan array binding signal (z-score) (Gal(a1-4)Gal(b1-4)Glc): -0.135; glycan array binding signal (z-score) (Gal(a1-4)Gal(b1-4)GlcNAc): -0.126; glycan array binding signal (z-score) [14]: -0.08; glycan array binding signal (z-score) [15]: -0.14; glycan array binding signal (z-score) (Gal(a1-4)GlcNAc): -0.128; glycan array binding signal (z-score) (Gal(a1-6)Glc): -0.138; glycan array binding signal (z-score) (Gal(b1-2)Gal): -0.122; glycan array binding signal (z-score) (Gal(b1-3)Gal): -0.144; glycan array binding signal (z-score) (Gal(b1-3)Gal(b1-4)GlcNAc): -0.134; glycan array binding signal (z-score) (Gal(b1-3)GalNAc): -0.135; glycan array binding signal (z-score) [16]: -0.12; glycan array binding signal (z-score) [17]: -0.13; glycan array binding signal (z-score) (Gal(b1-3)GalNAc(b1-3)Gal): -0.119; glycan array binding signal (z-score) [18]: -0.124; glycan array binding signal (z-score) [19]: -0.142; glycan array binding signal (z-score) [20]: -0.132; glycan array binding signal (z-score) (Gal(b1-3)GlcNAc): -0.129; glycan array binding signal (z-score) [21]: -0.139; glycan array binding signal (z-score) [22]: -0.132; glycan array binding signal (z-score) (Gal(b1-3)GlcNAc(b1-2)Man): -0.112; glycan array binding signal (z-score) [23]: -0.088

Reference: the supplement of paper PMC8728848
